# Reference: the supplement of paper PMC6531468
# This is one part of the list. Read counts after selection give these values, which scatter widely. Scores sum up all selected molecules that hold the word; the word was not tested alone.
# Experiments:
# Experiment in all cases: 6-mer SELEX enrichment z-score vs GST control; IMP3 is the RNA-binding protein IGF2BP3; higher = more enriched by binding
# [1] = tested on: IMP3 KH1-4; details: construct: KH1-4 (164-579); SELEX round: R4
# Experimental: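 SELEX-seq with GST-tagged IMP3 KH1-4 (Pro164-Lys579) and an N40 RNA pool, round 4. 6-mer z-score of sequence-tag enrichment normalised to the corresponding GST SELEX round; RNA k-mers written as DNA (T for U).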
# [2] = tested on: IMP3 RRM1-2; details: construct: RRM1-2 (1-163); SELEX round: R2
# Experimental: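 SELEX-seq with GST-tagged IMP3 RRM1-2 (Met1-Asn163) and an N40 RNA pool, round 2. 6-mer enrichment z-score normalised to GST SELEX. RNA written as DNA (T = U).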
# [3] = target: IMP3 full-length (UniProt O00425); details: construct: FL IMP3 (1-579); SELEX round: R4
# Experimental: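 SELEX-seq with GST-tagged full-length IMP3 and an N40 RNA pool, round 4. Each 6-mer is scored as an enrichment z-score of sequence tags containing it, normalised to the matching GST SELEX round. RNA written as DNA (T = U).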
# [4] = tested on: IMP3 KH1-2; details: construct: KH1-2 (164-376); SELEX round: R4
# Experimental: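 SELEX-seq with GST-tagged IMP3 KH1-2 (Pro164-Phe376) and an N40 RNA pool, round 4 (stringent 300/600 mM KCl washes). 6-mer z-score of sequence-tag enrichment normalised to the corresponding GST SELEX round; RNA k-mers written as DNA (T for U).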
# [5] = tested on: IMP3 KH3-4; details: construct: KH3-4 (377-579); SELEX round: R4
# Experimental: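 SELEX-seq with GST-tagged IMP3 KH3-4 (Pro377-Lys579) and an N40 RNA pool, round 4. 6-mer z-score of sequence-tag enrichment normalised to the corresponding GST SELEX round; RNA k-mers written as DNA (T for U).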
# Chain of IMP3 KH3-4 (chain, as listed by the source): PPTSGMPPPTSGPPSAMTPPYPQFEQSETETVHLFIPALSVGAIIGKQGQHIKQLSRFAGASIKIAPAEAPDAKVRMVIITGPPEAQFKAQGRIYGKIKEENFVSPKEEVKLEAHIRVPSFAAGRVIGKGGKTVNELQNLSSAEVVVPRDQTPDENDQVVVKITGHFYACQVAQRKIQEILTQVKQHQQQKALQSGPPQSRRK
# Chain of IMP3 KH1-2 (chain, as listed by the source): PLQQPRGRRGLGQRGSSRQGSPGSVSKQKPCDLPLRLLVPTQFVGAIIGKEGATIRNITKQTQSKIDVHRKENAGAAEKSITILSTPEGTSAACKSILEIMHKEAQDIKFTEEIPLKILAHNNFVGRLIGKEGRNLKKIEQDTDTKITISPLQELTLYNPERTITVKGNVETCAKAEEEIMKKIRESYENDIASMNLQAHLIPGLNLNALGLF
# Chain of IMP3 KH1-4 (chain, as listed by the source): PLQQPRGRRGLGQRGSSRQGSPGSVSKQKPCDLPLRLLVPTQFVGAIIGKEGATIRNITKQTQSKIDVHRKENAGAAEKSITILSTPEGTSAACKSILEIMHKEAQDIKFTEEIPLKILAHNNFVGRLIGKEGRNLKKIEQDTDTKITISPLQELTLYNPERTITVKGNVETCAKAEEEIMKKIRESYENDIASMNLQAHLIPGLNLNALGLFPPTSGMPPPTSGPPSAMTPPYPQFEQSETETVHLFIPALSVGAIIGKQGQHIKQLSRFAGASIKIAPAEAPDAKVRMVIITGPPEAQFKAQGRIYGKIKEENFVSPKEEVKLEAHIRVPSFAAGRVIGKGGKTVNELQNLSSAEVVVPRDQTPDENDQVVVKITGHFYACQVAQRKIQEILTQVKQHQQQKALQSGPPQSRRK
# Chain of IMP3 RRM1-2 (chain, as listed by the source): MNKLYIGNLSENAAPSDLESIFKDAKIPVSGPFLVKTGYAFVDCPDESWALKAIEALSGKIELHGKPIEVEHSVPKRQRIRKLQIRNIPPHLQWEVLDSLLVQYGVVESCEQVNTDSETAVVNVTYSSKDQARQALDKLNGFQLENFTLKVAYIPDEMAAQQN
# Chain of UniProt O00425 (O00425 whole entry): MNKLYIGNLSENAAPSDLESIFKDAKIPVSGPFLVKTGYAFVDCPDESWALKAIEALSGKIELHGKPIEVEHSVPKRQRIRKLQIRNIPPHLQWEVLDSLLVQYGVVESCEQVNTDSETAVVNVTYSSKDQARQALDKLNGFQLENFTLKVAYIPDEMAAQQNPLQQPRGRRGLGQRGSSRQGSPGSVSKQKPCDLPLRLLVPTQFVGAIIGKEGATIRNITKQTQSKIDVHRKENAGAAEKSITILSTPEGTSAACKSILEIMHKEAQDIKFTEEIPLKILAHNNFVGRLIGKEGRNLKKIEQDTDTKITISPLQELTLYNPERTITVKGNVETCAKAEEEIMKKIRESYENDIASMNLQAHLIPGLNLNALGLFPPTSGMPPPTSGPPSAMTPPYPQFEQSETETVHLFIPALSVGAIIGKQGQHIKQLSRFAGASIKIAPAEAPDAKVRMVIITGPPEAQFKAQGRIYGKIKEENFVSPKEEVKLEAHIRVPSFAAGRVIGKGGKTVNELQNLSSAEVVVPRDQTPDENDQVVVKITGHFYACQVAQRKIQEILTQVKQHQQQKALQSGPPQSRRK
sequence,measurement,setting,value
ATCTAC,6-mer SELEX enrichment z-score,[1],0.329
same,6-mer SELEX enrichment z-score,[2],0.231
same,6-mer SELEX enrichment z-score,[3],0.015
same,6-mer SELEX enrichment z-score,[4],0.196
same,6-mer SELEX enrichment z-score,[5],0.051
ATTTTT,6-mer SELEX enrichment z-score,[1],1.22
same,6-mer SELEX enrichment z-score,[2],0.368
same,6-mer SELEX enrichment z-score,[3],0.434
same,6-mer SELEX enrichment z-score,[4],1.29
same,6-mer SELEX enrichment z-score,[5],2.05
CTCTAC,6-mer SELEX enrichment z-score,[1],-0.191
same,6-mer SELEX enrichment z-score,[2],0.112
same,6-mer SELEX enrichment z-score,[3],-0.28
same,6-mer SELEX enrichment z-score,[4],-0.163
same,6-mer SELEX enrichment z-score,[5],-0.393
TATCCA,6-mer SELEX enrichment z-score,[1],-0.819
same,6-mer SELEX enrichment z-score,[2],0.006
same,6-mer SELEX enrichment z-score,[3],-0.798
same,6-mer SELEX enrichment z-score,[4],-0.736
same,6-mer SELEX enrichment z-score,[5],-0.941
TGTTTA,6-mer SELEX enrichment z-score,[1],0.335
same,6-mer SELEX enrichment z-score,[2],0.171
same,6-mer SELEX enrichment z-score,[3],-0.111
same,6-mer SELEX enrichment z-score,[4],0.244
same,6-mer SELEX enrichment z-score,[5],0.574
TGACCT,6-mer SELEX enrichment z-score,[1],-0.768
same,6-mer SELEX enrichment z-score,[2],-0.651
same,6-mer SELEX enrichment z-score,[3],-1.05
same,6-mer SELEX enrichment z-score,[4],-0.744
same,6-mer SELEX enrichment z-score,[5],-0.917
TCCGGA,6-mer SELEX enrichment z-score,[1],0.048
same,6-mer SELEX enrichment z-score,[2],-0.522
same,6-mer SELEX enrichment z-score,[3],-0.15
same,6-mer SELEX enrichment z-score,[4],0.036
same,6-mer SELEX enrichment z-score,[5],-0.102
GTACGC,6-mer SELEX enrichment z-score,[1],-0.426
same,6-mer SELEX enrichment z-score,[2],-0.039
same,6-mer SELEX enrichment z-score,[3],-0.02
same,6-mer SELEX enrichment z-score,[4],-0.428
same,6-mer SELEX enrichment z-score,[5],-0.559
GCCTAA,6-mer SELEX enrichment z-score,[1],-0.927
same,6-mer SELEX enrichment z-score,[2],-0.806
same,6-mer SELEX enrichment z-score,[3],-0.906
same,6-mer SELEX enrichment z-score,[4],-0.801
same,6-mer SELEX enrichment z-score,[5],-0.701
GTGTAG,6-mer SELEX enrichment z-score,[1],-1.91
same,6-mer SELEX enrichment z-score,[2],-0.015
same,6-mer SELEX enrichment z-score,[3],-1.54
same,6-mer SELEX enrichment z-score,[4],-1.78
same,6-mer SELEX enrichment z-score,[5],-1.65
ACCAGG,6-mer SELEX enrichment z-score,[1],-0.219
same,6-mer SELEX enrichment z-score,[2],0.463
same,6-mer SELEX enrichment z-score,[3],-0.017
same,6-mer SELEX enrichment z-score,[4],-0.25
same,6-mer SELEX enrichment z-score,[5],-0.424
TCTAGT,6-mer SELEX enrichment z-score,[1],0.069
same,6-mer SELEX enrichment z-score,[2],0.398
same,6-mer SELEX enrichment z-score,[3],0.066
same,6-mer SELEX enrichment z-score,[4],0.048
same,6-mer SELEX enrichment z-score,[5],0.121
ACACGA,6-mer SELEX enrichment z-score,[1],-0.445
same,6-mer SELEX enrichment z-score,[2],0.591
same,6-mer SELEX enrichment z-score,[3],0.203
same,6-mer SELEX enrichment z-score,[4],-0.308
same,6-mer SELEX enrichment z-score,[5],-0.573
GCGAAC,6-mer SELEX enrichment z-score,[1],-1.41
same,6-mer SELEX enrichment z-score,[2],-0.384
same,6-mer SELEX enrichment z-score,[3],-0.232
same,6-mer SELEX enrichment z-score,[4],-1.37
same,6-mer SELEX enrichment z-score,[5],-1.43
GACCCG,6-mer SELEX enrichment z-score,[1],-1.68
same,6-mer SELEX enrichment z-score,[2],-1.08
same,6-mer SELEX enrichment z-score,[3],-1.09
same,6-mer SELEX enrichment z-score,[4],-1.51
same,6-mer SELEX enrichment z-score,[5],-1.94
CCGGGT,6-mer SELEX enrichment z-score,[1],-0.817
same,6-mer SELEX enrichment z-score,[2],-0.187
same,6-mer SELEX enrichment z-score,[3],-0.076
same,6-mer SELEX enrichment z-score,[4],-0.607
same,6-mer SELEX enrichment z-score,[5],-0.593
ATCGAT,6-mer SELEX enrichment z-score,[1],-0.021
same,6-mer SELEX enrichment z-score,[2],-0.158
same,6-mer SELEX enrichment z-score,[3],-0.022
same,6-mer SELEX enrichment z-score,[4],-0.155
same,6-mer SELEX enrichment z-score,[5],0.036
CCACCT,6-mer SELEX enrichment z-score,[1],-0.853
same,6-mer SELEX enrichment z-score,[2],-0.413
same,6-mer SELEX enrichment z-score,[3],-0.845
same,6-mer SELEX enrichment z-score,[4],-0.748
same,6-mer SELEX enrichment z-score,[5],-1.31
GCGGTC,6-mer SELEX enrichment z-score,[1],0.228
same,6-mer SELEX enrichment z-score,[2],0.303
same,6-mer SELEX enrichment z-score,[3],0.665
same,6-mer SELEX enrichment z-score,[4],0.153
same,6-mer SELEX enrichment z-score,[5],0.176
AGATGC,6-mer SELEX enrichment z-score,[1],-0.123
same,6-mer SELEX enrichment z-score,[2],-0.48
same,6-mer SELEX enrichment z-score,[3],-0.33
same,6-mer SELEX enrichment z-score,[4],-0.112
same,6-mer SELEX enrichment z-score,[5],0.089
AACTTT,6-mer SELEX enrichment z-score,[1],0.719
same,6-mer SELEX enrichment z-score,[2],-0.23
same,6-mer SELEX enrichment z-score,[3],-0.337
same,6-mer SELEX enrichment z-score,[4],0.691
same,6-mer SELEX enrichment z-score,[5],0.983
GGTAAG,6-mer SELEX enrichment z-score,[1],0.186
same,6-mer SELEX enrichment z-score,[2],-0.151
same,6-mer SELEX enrichment z-score,[3],0.049
same,6-mer SELEX enrichment z-score,[4],0.164
same,6-mer SELEX enrichment z-score,[5],0.342
TACTGA,6-mer SELEX enrichment z-score,[1],0.342
same,6-mer SELEX enrichment z-score,[2],-0.485
same,6-mer SELEX enrichment z-score,[3],-0.408
same,6-mer SELEX enrichment z-score,[4],0.419
same,6-mer SELEX enrichment z-score,[5],0.367
GATACC,6-mer SELEX enrichment z-score,[1],-1.16
same,6-mer SELEX enrichment z-score,[2],-0.737
same,6-mer SELEX enrichment z-score,[3],-0.991
same,6-mer SELEX enrichment z-score,[4],-1.11
same,6-mer SELEX enrichment z-score,[5],-1.25
TGCCCC,6-mer SELEX enrichment z-score,[1],-0.707
same,6-mer SELEX enrichment z-score,[2],-0.532
same,6-mer SELEX enrichment z-score,[3],-0.891
same,6-mer SELEX enrichment z-score,[4],-0.386
same,6-mer SELEX enrichment z-score,[5],-1.36
AAGTTA,6-mer SELEX enrichment z-score,[1],0.255
same,6-mer SELEX enrichment z-score,[2],-0.237
same,6-mer SELEX enrichment z-score,[3],-0.447
same,6-mer SELEX enrichment z-score,[4],-0.033
same,6-mer SELEX enrichment z-score,[5],0.301
AGATAG,6-mer SELEX enrichment z-score,[1],0.566
same,6-mer SELEX enrichment z-score,[2],-0.414
same,6-mer SELEX enrichment z-score,[3],-0.046
same,6-mer SELEX enrichment z-score,[4],0.514
same,6-mer SELEX enrichment z-score,[5],0.942
CTGTAC,6-mer SELEX enrichment z-score,[1],-0.011
same,6-mer SELEX enrichment z-score,[2],-0.184
same,6-mer SELEX enrichment z-score,[3],-0.048
same,6-mer SELEX enrichment z-score,[4],-0.076
same,6-mer SELEX enrichment z-score,[5],-0.345
GTCGAA,6-mer SELEX enrichment z-score,[1],-0.762
same,6-mer SELEX enrichment z-score,[2],-0.44
same,6-mer SELEX enrichment z-score,[3],-0.426
same,6-mer SELEX enrichment z-score,[4],-0.735
same,6-mer SELEX enrichment z-score,[5],-0.561
CTTCTT,6-mer SELEX enrichment z-score,[1],0.386
same,6-mer SELEX enrichment z-score,[2],0.535
same,6-mer SELEX enrichment z-score,[3],0.076
same,6-mer SELEX enrichment z-score,[4],0.354
same,6-mer SELEX enrichment z-score,[5],0.308
